Assay results from the supplement of paper PMC10126150.
Values marked as one replicate rest on one cluster of the flow cell; about a third of the high ones do not repeat.

System: ATP
Test: switch fluorescence ratio, 500 uM ATP over buffer (Cy3 cluster intensity, sum of 5 cycles each) (fold (ratio)); higher = stronger signal-on switching upon ATP binding; sequences stand for … in TCGTCGGCAGCGTCAGATGTGTATAAGAGACAGTTTTTTTTTTTTTTTTTTTTTTTTT…TC
Conditions: aptamer strand: ATP DNA aptamer (quencher-CACCTGGGGGAGTATTGCGGAGGAAGG + anchor), 100 nM annealed; ATP concentration: 500 uM; one replicate
Procedure, shortened: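 Between each of five buffer/ATP cycles, the flow-cell was stripped with NaOH and re-annealed. Each cycle imaged Cy3-labelled switching-strand clusters, annealed to 100 nM quencher-labelled ATP aptamer on a modified Illumina MiSeq flow-cell, first in selection buffer and then after 15 min with 500 uM ATP at 22 °C. The fluorescence ratio is summed target-cycle over summed buffer-cycle Cy3 intensity per cluster, averaged per switch-domain sequence, with clusters outside 100-1000 RFU excluded.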
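Further: ATP exposure 15 min at 22 °C before imaging.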

| Sequence | switch fluorescence ratio |
| --- | --- |
| TTCACGGTAA | 1.21 |
| TTCAGCATTA | 1.14 |
| TTCAGGCCTA | 1.01 |
| TTCAGGGAA | 1.03 |
| TTCAGGTGCA | 1.55 |
| TTCAGTAATA | 1.01 |
| TTCAGTATAT | 0.997 |
| TTCAGTGCTC | 0.992 |
| TTCAGTTCT | 0.987 |
| TTCATATAGC | 1.02 |
| TTCATCACCT | 1.17 |
| TTCATCTGAA | 0.993 |
| TTCATGTCTT | 0.957 |
| TTCATGTTCG | 1 |
| TTCATTAAAT | 0.982 |
| TTCATTCGG | 0.989 |
| TTCATTGCCC | 1.01 |
| TTCATTTCA | 1.01 |
| TTCCAACGGG | 1.02 |
| TTCCAAGCGG | 1.19 |
| TTCCAATATG | 1.53 |
| TTCCACGCC | 1.26 |
| TTCCACGTTA | 1.22 |
| TTCCACTGAG | 1.03 |
| TTCCAGACGC | 1.64 |

| Sequence | switch fluorescence ratio |
| --- | --- |
| TTCCAGGTAC | 1.28 |
| TTCCAGGTTT | 1.67 |
| TTCCATAAAC | 0.966 |
| TTCCATATT | 1.02 |
| TTCCATTGAT | 0.98 |
| TTCCCCTAGC | 1.05 |
| TTCCCCTCT | 1.1 |
| TTCCCGACGA | 1.34 |
| TTCCCGGGTC | 1.04 |
| TTCCCGTGAT | 1.07 |
| TTCCCTTGCT | 1.1 |
| TTCCGACTGA | 3.44 |
| TTCCGCATGT | 4.78 |
| TTCCGCGACG | 1.24 |
| TTCCGCGGTA | 1.67 |
| TTCCGCTGGT | 1.22 |
| TTCCGGACGG | 0.982 |
| TTCCGGTGTA | 1.04 |
| TTCCGTAGGT | 1.03 |
| TTCCGTATGG | 1.02 |
| TTCCGTCCTT | 0.983 |
| TTCCGTGATG | 1.18 |
| TTCCGTGCCG | 1 |
| TTCCGTGGGC | 1.2 |
| TTCCGTTCCA | 1.03 |

| Sequence | switch fluorescence ratio |
| --- | --- |
| TTCCGTTGGT | 0.973 |
| TTCCTAAATA | 0.968 |
| TTCCTACGCC | 2 |
| TTCCTCGGA | 1.11 |
| TTCCTGAAAT | 1.03 |
| TTCCTGACCA | 1.13 |
| TTCCTGGAAT | 1.94 |
| TTCGAAACCC | 1.01 |
| TTCGAAATTC | 1 |
| TTCGAAGACT | 1.03 |
| TTCGAAGAGA | 0.992 |
| TTCGACGATG | 0.97 |
| TTCGAGACCC | 1 |
| TTCGAGCGTC | 1.05 |
| TTCGAGGCCC | 1 |
| TTCGAGTTAC | 1.2 |
| TTCGATAAGT | 1.03 |
| TTCGATCATT | 1.02 |
| TTCGATGACG | 1.04 |
| TTCGATGGAG | 1.02 |
| TTCGCAAAAT | 1.66 |
| TTCGCATTCG | 1.55 |
| TTCGCATTGG | 1.84 |
| TTCGCCCCGT | 0.965 |
| TTCGCGTATT | 1.02 |

| Sequence | switch fluorescence ratio |
| --- | --- |
| TTCGCGTGTC | 1.07 |
| TTCGCGTTT | 1.03 |
| TTCGCTTTCT | 1.87 |
| TTCGGAAACA | 1 |
| TTCGGATGAT | 0.993 |
| TTCGGATTAG | 0.986 |
| TTCGGCAACT | 1.05 |
| TTCGGCACAG | 0.983 |
| TTCGGCAGG | 1.23 |
| TTCGGCCTAA | 1 |
| TTCGGCGCAA | 1.01 |
| TTCGGCTGCT | 0.958 |
| TTCGGGAATG | 0.989 |
| TTCGGGAGGC | 1.02 |
| TTCGGGGTCA | 0.976 |
| TTCGGGTGCG | 1.07 |
| TTCGGTATCA | 0.943 |
| TTCGGTCAGT | 0.988 |
| TTCGGTCCG | 1.01 |
| TTCGGTTAAG | 1 |
| TTCGGTTCTA | 1.01 |
| TTCGTACACT | 1 |
| TTCGTCATAG | 1.02 |
| TTCGTCT | 1 |
| TTCGTGAAAG | 0.96 |
